According to paper PMC6728388:
No constants are given. Whether binding was seen depends on the method and setting. Binding seen in cells or lysates may run through a third protein. Some results given as binding are weak or reduced against the parent protein; the word gives no strength. For part of these data: Tags and fused reporters may be left off the sequences shown.

Protein sequences, listed by entry. Tags and fused reporters are not part of them. Lines headed by an entry give the natural chain unless they say otherwise; changes in a name come on top. Chains listed by the source or under a name are the forms on record and can include a tag or linker. Residues count along the entry.
UniProt Q3TN34: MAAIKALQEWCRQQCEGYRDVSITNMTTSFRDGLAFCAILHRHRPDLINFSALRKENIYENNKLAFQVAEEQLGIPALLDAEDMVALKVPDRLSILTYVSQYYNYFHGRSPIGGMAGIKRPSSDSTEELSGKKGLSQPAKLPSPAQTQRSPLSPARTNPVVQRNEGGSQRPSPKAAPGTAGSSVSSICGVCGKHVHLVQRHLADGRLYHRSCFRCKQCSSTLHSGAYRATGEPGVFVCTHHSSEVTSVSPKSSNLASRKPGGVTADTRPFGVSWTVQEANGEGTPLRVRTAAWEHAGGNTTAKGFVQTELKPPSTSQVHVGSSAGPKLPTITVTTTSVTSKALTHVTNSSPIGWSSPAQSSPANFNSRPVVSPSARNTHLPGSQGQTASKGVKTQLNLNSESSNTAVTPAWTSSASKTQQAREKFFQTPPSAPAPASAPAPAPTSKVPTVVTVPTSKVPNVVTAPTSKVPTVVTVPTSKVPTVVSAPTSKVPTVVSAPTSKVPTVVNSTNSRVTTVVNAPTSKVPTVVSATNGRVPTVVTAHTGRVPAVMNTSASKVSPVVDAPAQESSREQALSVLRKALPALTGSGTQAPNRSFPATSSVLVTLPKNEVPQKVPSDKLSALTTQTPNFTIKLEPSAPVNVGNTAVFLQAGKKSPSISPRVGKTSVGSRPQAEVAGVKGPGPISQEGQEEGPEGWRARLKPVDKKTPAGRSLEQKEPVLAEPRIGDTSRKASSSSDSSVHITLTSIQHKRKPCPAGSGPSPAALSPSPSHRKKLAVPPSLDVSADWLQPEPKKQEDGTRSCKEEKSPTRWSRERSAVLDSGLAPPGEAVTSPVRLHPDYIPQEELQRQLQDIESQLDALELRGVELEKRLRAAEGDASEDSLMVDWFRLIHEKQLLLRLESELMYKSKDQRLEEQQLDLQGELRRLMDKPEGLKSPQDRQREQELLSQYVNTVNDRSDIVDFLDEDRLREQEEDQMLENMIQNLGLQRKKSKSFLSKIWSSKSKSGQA
GST-JRAB-C (aa 806–1009): residues 806-1009 of Q3TN34
GFP-JRAB-C (Q895K/L898K) (Q3TN34, form named): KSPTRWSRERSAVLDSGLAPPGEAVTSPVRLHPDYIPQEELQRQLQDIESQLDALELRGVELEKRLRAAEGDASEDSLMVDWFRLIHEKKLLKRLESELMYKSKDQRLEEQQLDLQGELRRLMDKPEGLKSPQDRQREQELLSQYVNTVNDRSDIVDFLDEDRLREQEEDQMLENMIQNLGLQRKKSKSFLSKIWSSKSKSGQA
GFP-JRAB-CH + LIM (S224E/R228E) (Q3TN34, form named): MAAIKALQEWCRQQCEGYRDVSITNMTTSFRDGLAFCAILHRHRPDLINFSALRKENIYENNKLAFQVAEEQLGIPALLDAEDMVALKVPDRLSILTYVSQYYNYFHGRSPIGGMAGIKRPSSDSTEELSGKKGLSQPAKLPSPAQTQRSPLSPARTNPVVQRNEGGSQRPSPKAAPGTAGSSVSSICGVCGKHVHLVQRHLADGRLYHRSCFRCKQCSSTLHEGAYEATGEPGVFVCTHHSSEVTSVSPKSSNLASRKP
GFP-JRABΔCC (Q3TN34, form named): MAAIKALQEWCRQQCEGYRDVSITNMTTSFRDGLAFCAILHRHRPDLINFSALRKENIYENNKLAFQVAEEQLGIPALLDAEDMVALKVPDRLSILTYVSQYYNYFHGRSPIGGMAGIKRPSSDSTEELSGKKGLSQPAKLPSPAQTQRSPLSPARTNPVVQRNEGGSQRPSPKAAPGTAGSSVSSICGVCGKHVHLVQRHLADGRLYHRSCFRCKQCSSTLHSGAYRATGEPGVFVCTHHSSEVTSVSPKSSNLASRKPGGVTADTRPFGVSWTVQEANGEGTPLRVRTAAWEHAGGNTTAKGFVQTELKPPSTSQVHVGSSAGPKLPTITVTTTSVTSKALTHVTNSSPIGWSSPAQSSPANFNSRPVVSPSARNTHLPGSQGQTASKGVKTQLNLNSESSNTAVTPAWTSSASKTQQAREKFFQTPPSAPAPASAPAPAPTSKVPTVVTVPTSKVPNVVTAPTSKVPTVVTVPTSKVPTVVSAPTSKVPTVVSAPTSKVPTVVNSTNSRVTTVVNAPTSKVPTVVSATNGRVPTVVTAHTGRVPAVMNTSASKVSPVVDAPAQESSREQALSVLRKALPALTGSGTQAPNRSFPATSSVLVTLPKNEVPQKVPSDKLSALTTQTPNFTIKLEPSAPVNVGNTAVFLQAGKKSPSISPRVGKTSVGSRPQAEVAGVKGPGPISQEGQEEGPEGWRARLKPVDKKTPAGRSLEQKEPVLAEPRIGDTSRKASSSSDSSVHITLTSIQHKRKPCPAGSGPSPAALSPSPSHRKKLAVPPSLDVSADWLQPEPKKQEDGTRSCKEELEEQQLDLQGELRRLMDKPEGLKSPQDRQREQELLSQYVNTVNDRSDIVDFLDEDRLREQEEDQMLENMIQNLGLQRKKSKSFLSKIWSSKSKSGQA
GFP-JRAB-CH + LIM (L197E/V198E/R200E) (Q3TN34, form named): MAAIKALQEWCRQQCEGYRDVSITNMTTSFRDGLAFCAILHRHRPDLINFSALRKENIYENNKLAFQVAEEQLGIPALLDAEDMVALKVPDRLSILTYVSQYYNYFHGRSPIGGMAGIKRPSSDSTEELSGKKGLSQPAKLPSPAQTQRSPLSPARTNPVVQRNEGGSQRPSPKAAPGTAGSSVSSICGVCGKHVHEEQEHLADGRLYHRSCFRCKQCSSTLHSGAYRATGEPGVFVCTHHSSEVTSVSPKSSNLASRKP
GFP-JRAB-CH + LIMΔZF2 (aa 1–213 + 242–260) (Q3TN34, form named): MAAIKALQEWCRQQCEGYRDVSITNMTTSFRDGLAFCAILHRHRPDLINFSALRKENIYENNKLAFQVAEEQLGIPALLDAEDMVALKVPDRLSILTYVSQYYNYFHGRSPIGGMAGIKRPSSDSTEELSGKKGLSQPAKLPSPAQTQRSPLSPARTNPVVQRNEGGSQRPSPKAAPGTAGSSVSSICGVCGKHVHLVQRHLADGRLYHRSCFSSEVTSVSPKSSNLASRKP
GFP-JRABΔZF1 (Q3TN34, form named): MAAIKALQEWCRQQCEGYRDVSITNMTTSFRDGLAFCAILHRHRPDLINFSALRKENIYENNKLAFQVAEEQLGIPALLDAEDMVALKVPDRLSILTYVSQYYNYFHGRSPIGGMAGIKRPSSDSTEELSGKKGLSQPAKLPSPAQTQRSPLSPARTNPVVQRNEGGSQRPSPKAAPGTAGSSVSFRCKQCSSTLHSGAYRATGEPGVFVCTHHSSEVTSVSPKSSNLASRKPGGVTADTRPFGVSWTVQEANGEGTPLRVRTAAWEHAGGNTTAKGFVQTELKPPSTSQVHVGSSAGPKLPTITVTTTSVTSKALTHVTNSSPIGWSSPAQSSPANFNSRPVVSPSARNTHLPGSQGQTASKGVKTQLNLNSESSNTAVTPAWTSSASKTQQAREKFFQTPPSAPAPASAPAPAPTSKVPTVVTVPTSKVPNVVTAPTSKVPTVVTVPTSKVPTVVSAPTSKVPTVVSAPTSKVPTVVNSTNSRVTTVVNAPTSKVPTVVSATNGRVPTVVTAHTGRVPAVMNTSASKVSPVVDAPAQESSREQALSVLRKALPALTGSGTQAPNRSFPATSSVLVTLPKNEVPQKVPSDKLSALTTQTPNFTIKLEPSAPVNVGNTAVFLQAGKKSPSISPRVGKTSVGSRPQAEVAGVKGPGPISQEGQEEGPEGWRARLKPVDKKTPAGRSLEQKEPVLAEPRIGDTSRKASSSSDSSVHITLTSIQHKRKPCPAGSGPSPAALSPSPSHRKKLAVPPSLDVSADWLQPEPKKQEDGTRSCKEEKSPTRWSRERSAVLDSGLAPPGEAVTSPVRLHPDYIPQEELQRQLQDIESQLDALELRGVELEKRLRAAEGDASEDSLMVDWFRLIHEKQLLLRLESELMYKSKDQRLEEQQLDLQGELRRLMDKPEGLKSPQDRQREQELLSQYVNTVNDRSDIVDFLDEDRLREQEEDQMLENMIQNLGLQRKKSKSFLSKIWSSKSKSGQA
UniProt P21333: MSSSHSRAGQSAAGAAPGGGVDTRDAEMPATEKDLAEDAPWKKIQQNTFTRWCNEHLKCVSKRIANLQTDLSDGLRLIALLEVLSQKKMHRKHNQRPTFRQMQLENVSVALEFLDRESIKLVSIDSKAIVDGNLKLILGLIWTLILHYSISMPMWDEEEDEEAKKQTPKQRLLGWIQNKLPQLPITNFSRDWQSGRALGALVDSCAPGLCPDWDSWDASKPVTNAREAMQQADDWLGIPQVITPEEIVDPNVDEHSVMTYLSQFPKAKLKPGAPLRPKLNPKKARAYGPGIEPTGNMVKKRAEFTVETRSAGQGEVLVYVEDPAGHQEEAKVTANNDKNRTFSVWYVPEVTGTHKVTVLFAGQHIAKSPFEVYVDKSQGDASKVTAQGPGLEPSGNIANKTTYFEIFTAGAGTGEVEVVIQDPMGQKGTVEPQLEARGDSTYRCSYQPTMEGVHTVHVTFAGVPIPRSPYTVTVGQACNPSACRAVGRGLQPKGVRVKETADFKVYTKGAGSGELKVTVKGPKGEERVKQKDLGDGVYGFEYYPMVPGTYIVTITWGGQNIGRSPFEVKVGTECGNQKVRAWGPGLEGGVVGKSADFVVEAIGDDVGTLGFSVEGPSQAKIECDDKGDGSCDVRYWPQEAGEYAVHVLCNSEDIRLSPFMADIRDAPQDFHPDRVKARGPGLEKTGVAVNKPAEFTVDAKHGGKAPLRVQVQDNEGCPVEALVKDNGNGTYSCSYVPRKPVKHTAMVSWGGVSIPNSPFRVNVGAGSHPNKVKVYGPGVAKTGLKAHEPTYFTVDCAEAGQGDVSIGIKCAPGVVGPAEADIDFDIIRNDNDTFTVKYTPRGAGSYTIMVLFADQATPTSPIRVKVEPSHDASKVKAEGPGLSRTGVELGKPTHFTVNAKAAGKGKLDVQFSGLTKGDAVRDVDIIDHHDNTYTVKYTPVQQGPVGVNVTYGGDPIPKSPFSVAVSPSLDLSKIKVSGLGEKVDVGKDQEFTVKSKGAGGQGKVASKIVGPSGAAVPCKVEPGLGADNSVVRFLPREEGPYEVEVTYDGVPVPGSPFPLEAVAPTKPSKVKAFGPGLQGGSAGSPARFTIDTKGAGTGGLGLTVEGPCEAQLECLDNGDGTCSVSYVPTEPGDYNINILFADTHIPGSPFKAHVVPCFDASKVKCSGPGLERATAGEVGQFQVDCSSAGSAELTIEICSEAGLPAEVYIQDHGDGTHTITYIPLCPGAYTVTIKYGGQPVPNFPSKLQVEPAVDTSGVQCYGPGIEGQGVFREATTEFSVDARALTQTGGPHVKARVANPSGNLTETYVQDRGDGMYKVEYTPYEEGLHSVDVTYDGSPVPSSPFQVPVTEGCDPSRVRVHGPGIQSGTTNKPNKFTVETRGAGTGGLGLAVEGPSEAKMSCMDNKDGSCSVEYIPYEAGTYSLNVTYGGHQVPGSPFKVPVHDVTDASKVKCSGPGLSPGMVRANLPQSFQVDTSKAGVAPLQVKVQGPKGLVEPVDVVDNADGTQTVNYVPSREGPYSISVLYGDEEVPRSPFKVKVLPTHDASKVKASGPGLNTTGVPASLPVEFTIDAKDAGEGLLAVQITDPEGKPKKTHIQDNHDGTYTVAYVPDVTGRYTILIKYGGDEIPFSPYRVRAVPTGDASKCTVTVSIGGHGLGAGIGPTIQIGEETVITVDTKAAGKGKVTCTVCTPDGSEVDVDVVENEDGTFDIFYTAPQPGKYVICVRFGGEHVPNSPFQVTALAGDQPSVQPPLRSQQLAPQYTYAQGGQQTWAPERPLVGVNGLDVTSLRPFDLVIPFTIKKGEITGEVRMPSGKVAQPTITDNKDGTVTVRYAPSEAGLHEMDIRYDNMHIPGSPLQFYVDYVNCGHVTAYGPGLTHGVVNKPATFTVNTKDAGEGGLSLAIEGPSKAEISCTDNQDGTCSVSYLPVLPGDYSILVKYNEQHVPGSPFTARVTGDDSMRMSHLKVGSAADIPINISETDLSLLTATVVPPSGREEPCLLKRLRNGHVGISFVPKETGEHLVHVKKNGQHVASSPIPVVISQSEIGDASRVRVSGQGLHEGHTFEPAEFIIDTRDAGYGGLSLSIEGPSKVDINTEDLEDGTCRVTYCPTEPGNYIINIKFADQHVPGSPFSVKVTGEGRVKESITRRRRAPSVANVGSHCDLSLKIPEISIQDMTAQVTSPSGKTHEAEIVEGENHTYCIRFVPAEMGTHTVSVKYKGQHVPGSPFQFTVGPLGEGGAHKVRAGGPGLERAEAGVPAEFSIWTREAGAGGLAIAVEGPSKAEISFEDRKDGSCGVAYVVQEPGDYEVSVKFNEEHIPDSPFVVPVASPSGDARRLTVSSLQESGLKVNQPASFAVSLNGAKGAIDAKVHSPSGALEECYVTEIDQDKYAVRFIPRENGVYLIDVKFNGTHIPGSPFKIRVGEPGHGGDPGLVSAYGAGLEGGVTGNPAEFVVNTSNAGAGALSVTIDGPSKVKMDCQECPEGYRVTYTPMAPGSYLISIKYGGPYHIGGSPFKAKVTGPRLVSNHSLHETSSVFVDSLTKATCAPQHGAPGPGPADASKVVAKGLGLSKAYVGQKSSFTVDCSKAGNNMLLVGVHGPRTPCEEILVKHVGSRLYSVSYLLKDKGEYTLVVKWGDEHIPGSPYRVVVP

Tests used:
[1] = target: GST-JRAB-CH + LIM (mouse) (UniProt Q3TN34); experiment: pull-down; purified GST-JRAB-C or GST-JRAB-CH + LIM on glutathione-Sepharose beads, incubated with lysates of HEK293 cells expressing GFP-tagged JRAB variants; western blot with anti-GFP; only the target purified
[2] = target: T1, HA-Rab13DA (Q67L) (mouse) (UniProt Q9DD03); experiment: co-IP; HEK293 cells co-expressing a GFP-tagged JRAB variant and HA-Rab13DA or HA-filaminA; lysate precipitated with anti-HA antibody (12CA5) on Protein G-Sepharose; western blot with anti-GFP and anti-HA
T1 sequence: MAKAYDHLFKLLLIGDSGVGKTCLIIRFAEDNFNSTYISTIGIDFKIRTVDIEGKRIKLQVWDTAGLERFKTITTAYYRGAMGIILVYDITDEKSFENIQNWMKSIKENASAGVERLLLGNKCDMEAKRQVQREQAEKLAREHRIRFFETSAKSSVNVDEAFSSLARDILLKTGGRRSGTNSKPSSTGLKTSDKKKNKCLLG

HA-filaminA = HA-filaminA (UniProt P21333); experiment: as above
[3] = target: GST-JRAB-C (aa 806–1009) (mouse) (UniProt Q3TN34); experiment: pull-down; purified GST-JRAB-C or GST-JRAB-CH + LIM on glutathione-Sepharose beads, incubated with lysates of HEK293 cells expressing GFP-tagged JRAB variants; western blot with anti-GFP; only the target purified

| Substance | binding [1] | binding [2] | binding (HA-filaminA) | binding [3] |
| --- | --- | --- | --- | --- |
| GFP-JRABΔCT (from UniProt Q3TN34 1-912) (domain or fragment) | no binding |  | no binding |  |
| GFP-JRAB WT (from UniProt Q3TN34 1-1009) | no binding |  |  |  |
| GFP-JRAB-CH + LIM (L197E/V198E/R200E) (from UniProt Q3TN34 1-260) (domain or fragment) |  |  | binds | no binding |
| GFP-JRABΔZF1 (from UniProt Q3TN34 1-1009) | binds |  | binds |  |
| GFP-JRAB-CH + LIMΔZF1 (aa 1–185 + 213–260) (from UniProt Q3TN34 1-260) (domain or fragment) |  |  |  | no binding |
| GFP-JRAB-CH + LIM (aa 1–260) (from UniProt Q3TN34 1-260) (domain or fragment) |  |  | binds | binds |

Results, then the substance that gave them:

| binding [1] | binding [2] | binding (HA-filaminA) | binding [3] | Substance |
| --- | --- | --- | --- | --- |
| no binding | binds |  |  | GFP-JRAB-C (Q895K/L898K) (from UniProt Q3TN34 806-1009) (domain or fragment) |
|  |  |  | binds | GFP-JRAB-CH + LIM (S224E/R228E) (from UniProt Q3TN34 1-260) (domain or fragment) |
|  |  | binds |  | GFP-JRABΔCC (from UniProt Q3TN34 1-1009) |
|  |  |  | binds | GFP-JRAB-CH + LIMΔZF2 (aa 1–213 + 242–260) (from UniProt Q3TN34 1-260) (domain or fragment) |
|  |  |  | binds | GFP-JRAB-LIM (aa 139–260) (from UniProt Q3TN34 139-260) (domain or fragment) |
|  |  |  | no binding | GFP-JRAB-CH (aa 1–138) (from UniProt Q3TN34 1-138) (domain or fragment) |
| no binding | binds |  |  | GFP-JRAB-C (M884K/W887K) (from UniProt Q3TN34 806-1009) (domain or fragment) |
| binds | binds |  |  | GFP-JRAB-C WT (from UniProt Q3TN34 806-1009) (domain or fragment) |
